# The antibiotic and cytotoxicity screens of Wong et al. (2023)
# The list shows a part of the results.
# Columns and labels:
# [1] = test system: HSkMC (human skeletal muscle cells); assay: cytotoxicity call (relative viability < 0.9); settings: 10 µM
# [2] = test system: HepG2; assay: cytotoxicity call (relative viability < 0.9); settings: 10 µM
# [3] = test system: S. aureus RN4220; assay: growth inhibition call (relative growth <= 0.2); settings: 50 µM
Structure (SMILES),cytotoxicity call [1],cytotoxicity call [2],growth inhibition call [3]
CO[C@@H](CN(C)S(=O)(=O)c1cccc(Cl)c1)[C@H](C)CN([C@H](C)CO)S(=O)(=O)c1ccc(Cl)cc1,inactive,inactive,inactive
COc1ccccc1C(=O)Nc1ccc2c(c1)C(=O)N(C)[C@H]1CC[C@@H](CC(=O)NCc3ccc(Cl)c(Cl)c3)O[C@@H]1CO2,active,active,inactive
Cc1noc(C)c1S(=O)(=O)N(C)C[C@@H]1Oc2ccc(NC(=O)C3CC3)cc2CC(=O)N([C@H](C)CO)C[C@@H]1C,inactive,inactive,inactive
COc1ccc(S(=O)(=O)Nc2cccc3c2O[C@@H](CN(C)S(=O)(=O)c2ccc(OC)cc2)[C@@H](C)CN([C@@H](C)CO)C3=O)cc1,inactive,inactive,inactive
Cc1noc(C)c1S(=O)(=O)Nc1ccc2c(c1)C(=O)N([C@H](C)CO)C[C@@H](C)[C@@H](CN(C)S(=O)(=O)c1cn(C)cn1)OCCCC[C@@H](C)O2,inactive,inactive,inactive
CC(C)CCCC(C)C1CCC2C3CCC4CC(=O)CCC4(C)C3CCC12C (configuration not stated),inactive,inactive,inactive
C[C@@H]1CCCCO[C@H](CN(C)Cc2ccc(Cl)c(Cl)c2)[C@@H](C)CN([C@@H](C)CO)C(=O)c2cc(NC(=O)NC3CCCCC3)ccc2O1,active,inactive,inactive
O=C(Nc1nnn[nH]1)c1cncc(N2CCCC2)n1,inactive,inactive,inactive
Cc1ccc(-c2ccc3c(c2)O[C@H](CN(C)Cc2cncnc2)[C@@H](C)CN([C@H](C)CO)S3(=O)=O)cc1,inactive,inactive,inactive
CN1CCN(C(=O)[C@@H]2[C@@H](CO)[C@@H]3Cn4c(ccc(C5=CCCCC5)c4=O)[C@H]2N3S(C)(=O)=O)CC1,inactive,inactive,inactive
CCC(=O)Nc1ccc2c(c1)C(=O)N(C)C[C@@H](OC)[C@H](C)CN(Cc1ccc(-c3ccccn3)cc1)[C@H](C)CO2,inactive,inactive,inactive
C[C@H](CO)N1C[C@H](C)[C@H](CN(C)C(=O)NC2CCCCC2)Oc2c(NC(=O)c3cnccn3)cccc2C1=O,inactive,inactive,inactive
Cc1ccc(S(=O)(=O)Nc2ccc3c(c2)C(=O)N([C@@H](C)CO)C[C@H](C)[C@@H](CN(C)C(=O)Nc2ccc4c(c2)OCO4)OCCCC[C@@H](C)O3)cc1,inactive,inactive,inactive
C[C@@H]1CN([C@H](C)CO)C(=O)Cc2cc(NC(=O)C3CCCCC3)ccc2O[C@H]1CN(C)S(C)(=O)=O,inactive,inactive,inactive
C[C@H]1CN([C@@H](C)CO)C(=O)c2ccccc2-c2ccccc2CO[C@H]1CN(C)Cc1cccc2c1OCCCO2,inactive,inactive,inactive
C[C@H](CO)N1C[C@H](C)[C@@H](CN(C)S(=O)(=O)c2cn(C)cn2)Oc2c(NC(=O)CCCN(C)C)cccc2C1=O,inactive,inactive,inactive
C[C@@H]1CN([C@@H](C)CO)C(=O)c2cccc(NS(=O)(=O)c3cccs3)c2O[C@@H]1CN(C)S(=O)(=O)c1ccccc1,inactive,inactive,inactive
C[C@@H]1CCCCO[C@H](CN(C)C(=O)c2ccccc2)[C@H](C)CN([C@@H](C)CO)C(=O)c2cc(NS(=O)(=O)c3ccc(F)cc3)ccc2O1,inactive,inactive,inactive
C[C@@H]1CCCCO[C@H](CN(C)C(=O)Nc2ccc(C(F)(F)F)cc2)[C@H](C)CN([C@H](C)CO)C(=O)c2cc(NC(=O)Nc3ccc(F)cc3)ccc2O1,inactive,inactive,inactive
Cc1noc(C)c1S(=O)(=O)N(C)C[C@H]1Oc2ccc(NC(=O)CCC(F)(F)F)cc2CC(=O)N([C@H](C)CO)C[C@H]1C,inactive,inactive,inactive
CO[C@H](CN(C)S(=O)(=O)c1cccc(Cl)c1)[C@H](C)CN([C@H](C)CO)S(=O)(=O)c1ccc(Cl)cc1,inactive,inactive,inactive
C[C@H](CO)N1C[C@H](C)[C@H](CN(C)Cc2ccc(C(F)(F)F)cc2)Oc2c(NC(=O)Nc3ccc4c(c3)OCO4)cccc2C1=O,inactive,inactive,inactive
C[C@@H]1CN([C@@H](C)CO)C(=O)c2cc(NC(=O)Cc3ccccc3)ccc2O[C@@H]1CN(C)Cc1ccc(Cl)c(Cl)c1,inactive,inactive,inactive
Cc1noc(C)c1NC(=O)Nc1ccc2c(c1)CC(=O)N([C@H](C)CO)C[C@@H](C)[C@H](CN(C)C(=O)Nc1ccc(C(F)(F)F)cc1)O2,inactive,inactive,inactive
